Data from article PMC4336329 (PLoS ONE, 2015).
Screen size: about 310,000 compounds; about 14,000 (4.5%) showed an effect of 50% or more. The effect is printed as a negative number. The list shows a part of the results.

target: human ether-à-go-go-related gene (hERG) potassium channel (human, UniProt Q12809); test: primary screen, population patch clamp on CHO cells stably expressing hERG
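Also: peak tail current of the secondary pulse compared with the same well before compound.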

human ether-à-go-go-related gene (hERG) potassium channel, sequence (Q12809 whole entry, looked up): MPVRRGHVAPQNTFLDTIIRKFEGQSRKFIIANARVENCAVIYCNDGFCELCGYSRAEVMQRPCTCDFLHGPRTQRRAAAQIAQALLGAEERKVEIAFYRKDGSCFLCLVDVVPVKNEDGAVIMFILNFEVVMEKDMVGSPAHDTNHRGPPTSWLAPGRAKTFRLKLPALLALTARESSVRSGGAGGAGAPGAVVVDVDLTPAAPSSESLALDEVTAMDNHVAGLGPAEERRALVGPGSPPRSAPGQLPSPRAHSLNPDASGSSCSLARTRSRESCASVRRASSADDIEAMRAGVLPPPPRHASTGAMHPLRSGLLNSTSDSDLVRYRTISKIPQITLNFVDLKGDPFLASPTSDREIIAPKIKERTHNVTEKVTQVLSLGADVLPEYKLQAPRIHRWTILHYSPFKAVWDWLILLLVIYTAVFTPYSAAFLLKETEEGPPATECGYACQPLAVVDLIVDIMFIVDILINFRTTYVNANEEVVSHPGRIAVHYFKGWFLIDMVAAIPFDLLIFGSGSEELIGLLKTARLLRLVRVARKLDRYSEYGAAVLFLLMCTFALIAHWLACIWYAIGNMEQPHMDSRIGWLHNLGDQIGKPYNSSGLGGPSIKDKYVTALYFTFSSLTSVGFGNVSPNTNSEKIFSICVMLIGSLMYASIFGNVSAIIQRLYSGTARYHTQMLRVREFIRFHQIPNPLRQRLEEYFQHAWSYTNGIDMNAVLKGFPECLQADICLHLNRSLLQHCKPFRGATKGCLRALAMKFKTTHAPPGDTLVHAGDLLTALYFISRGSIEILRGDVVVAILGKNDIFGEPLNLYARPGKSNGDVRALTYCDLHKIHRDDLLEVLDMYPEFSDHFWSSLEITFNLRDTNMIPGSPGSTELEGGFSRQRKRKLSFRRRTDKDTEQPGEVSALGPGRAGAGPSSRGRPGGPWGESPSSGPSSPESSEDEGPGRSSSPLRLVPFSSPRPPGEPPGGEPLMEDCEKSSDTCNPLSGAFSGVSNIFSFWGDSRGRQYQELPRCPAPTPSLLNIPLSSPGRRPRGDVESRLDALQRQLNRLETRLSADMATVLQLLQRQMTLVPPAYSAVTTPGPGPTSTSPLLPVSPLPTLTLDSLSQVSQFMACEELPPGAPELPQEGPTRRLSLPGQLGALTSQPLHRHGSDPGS

In order of rising “hERG current change (%, negative = inhibition) at 10uM” value:
1. CCOC(=O)c1ccc2c(c1)n(CC)c(/C=C/Nc1ccccc1)[n+]2CC.[I-]  -80%
2. COc1ccc(NC(C)=O)cc1S(=O)(=O)N1CCN(C/C=C/c2ccccc2)CC1  -69.3%
3. COc1ccc(S(=O)(=O)N2CCOCC2)cc1NC(=O)CSc1ccccc1  -53.9%
4. CCc1nc(SCC(=O)N2CCN(C(=O)c3ccco3)CC2)c2c3c(sc2n1)CCCC3  -46%
5. O=C(C[n+]1ccn(CCCNP2(=O)C=C(c3ccccc3)OC(c3ccccc3)=C2)c1)c1cccs1.[Br-]  -44.7%
6. O=C(CSc1nnc2scc(-c3ccccc3)n12)Nc1nsc(-c2ccccc2)n1  -40.1%
7. COc1ccc(Nc2nccc(OC)c2C#N)cc1  -38.8%
8. O=C(N/N=C/c1ccoc1)c1ccc(Cl)cc1  -37.8%
9. Cc1c(C(=O)NCCC2=CCCCC2)oc2ccc(S(=O)(=O)N3CCOCC3)cc12  -37.2%
10. Cc1cc(C2=NNC(=NC3CC3)SC2)c(C)n1-c1ccccc1F  -36%
11. CCOC(=O)N1CCN(C(=O)C2CCN(S(=O)(=O)c3cc(Cl)ccc3OCC)CC2)CC1  -35.5%
12. Cc1ccc2c(c1)c(C)c(C)n2CC(O)CN1CCCCC1C (centres unmarked)  -33.7%
13. O=C(Nc1ccc(S(=O)(=O)N2CCOCC2)cc1)c1ccc([N+](=O)[O-])o1  -28.8%
14. COc1ccccc1CCNCc1cc2c(cc1[N+](=O)[O-])OCO2  -27.7%
15. CCc1ccc(NC(=O)COC(=O)c2nc3nc(C)cc(C)n3n2)cc1  -27.2%
16. Cc1nc2c(=O)oc3ccccc3c2n1-c1ccccc1  -25.2%
17. O=C(c1oc(=O)c2ccccc2c1-c1ccccc1)N1CCOCC1  -24.6%
18. CCc1ccc2c(c1)c1nnc(NN)nc1n2CC  -24.6%
19. COc1ccccc1Nc1nc(N)nc(CSc2ncccn2)n1  -24.2%
20. COc1ncccc1C(=O)NC1CCCc2c1cnn2-c1ccc(C)c(C)c1 (centres unmarked)  -23.3%
21. O=C(CCC1CCCN(c2ncccn2)C1)N1CCN(c2ccccn2)CC1 (centres unmarked)  -23%
22. Cc1ccc(CNC(=O)CCC2CCCN(Cc3cccc4ncccc34)C2)o1 (centres unmarked)  -22.4%
23. CCOC(=O)c1sc(N)c(C#N)c1CSc1nc2ccc(C)cc2[nH]1  -15.8%
24. CN1CCN(C2=Cc3ccc(Cl)cc3Sc3ccc(F)cc32)CC1.CS(=O)(=O)O.O  -14.8%
25. CC(CN1CCCCC1)OC(=O)CCc1ccccc1.Cl (centres unmarked)  -14.5%
26. COc1ccc(S(=O)(=O)NCCCc2ccccc2)cc1  -13.6%
27. CCn1cc(C(=O)NCCC2=CCCCC2)c(=O)c2cc(S(=O)(=O)N(C)C)ccc21  -13.1%
28. Cn1c(C(=O)NC2CCCCCC2)cc2c(=O)n(C)c3ccccc3c21  -11.8%
29. Cc1ccc(C)c(NC(=O)CN(C)C(=O)C2CCN(S(=O)(=O)c3ccc4c(c3)OCCO4)CC2)c1  -10.6%
30. O=C(COC(=O)c1ccc(S(=O)(=O)NCc2ccco2)cc1)NCc1ccc(F)cc1  -10.2%
31. O=C(C1CC1)N1CCN=C1SCc1ccc(F)cc1  -9.05%
32. COc1ccccc1C1c2[nH]c3ccccc3c2CCN1Cc1ccc(NC(C)=O)s1 (centres unmarked)  -7.67%
33. O=C1c2cccnc2C(Nc2ccccc2Br)N1Cc1ccco1 (centres unmarked)  -6.88%
34. CCN(CC)c1nc2ccccc2nc1-n1nc(C)cc1C  -6.86%
35. CC1Cn2c(nnc2-c2cccc(Cl)c2)S1 (centres unmarked)  -6.8%
36. Cc1cccc(C(=O)N2CCc3cc(-c4csc(NC(=O)CN5CCCC5)n4)ccc32)c1  -6.77%
37. Cc1ccc(NC(=O)COC(=O)C2CC3CCCC(C2)C3=O)c([N+](=O)[O-])c1 (centres unmarked)  -6.56%
38. COc1ccc(CC(=O)N2CC(C)CC(C)C2)cc1 (centres unmarked)  -6.06%
39. CCOC(=O)C1CCN(C(=O)CCn2c(=O)[nH]c3ccccc3c2=O)CC1  -5.69%
40. Cc1cc(C)c(NC(=O)c2cc3c(nc4sccn43)s2)c(C)c1  -5.61%
41. CCOC(=O)N1CCN(C(=O)CCC(=O)N2CCOc3ccc(C)cc32)CC1  -4.85%
42. COc1cccc(/C=C/c2ccncc2)c1OC.Cl  -4.42%
43. Clc1ccc2c(c1)C(c1ccccc1Cl)=NCc1nncn1-2  -4.37%
44. O=C(Nc1cccc(-c2cscn2)c1)C1CCN(Cc2ccc(CO)o2)CC1  -3.02%
45. O=C(O)/C(=C\c1ccc(F)cc1)c1ccc(-c2ccccc2)cc1  -2.31%
46. O=C(NCCN1CCOCC1)C(=O)NCC1CCCO1 (centres unmarked)  -2.29%
47. O=C(NCc1ccco1)C1CCCN1C(=O)NCc1ccccc1 (centres unmarked)  -1.87%
48. CCC(C)n1c(SCC(=O)NCCc2ccc(S(N)(=O)=O)cc2)nc2ccsc2c1=O (centres unmarked)  -1.16%
49. Cc1cc(C)n2c(SCC#N)nnc2n1  0.567%
50. COc1ccc(CCNC(=O)/C=C/c2ccco2)cc1OC  0.593%
51. CCNc1ccc(Br)cc(C(=O)/C=C/c2ccc3c(c2)OCO3)c1=O  1.19%
52. OC(CN1CCOCC1)Cn1c2ccccc2c2ccccc21 (centres unmarked)  2.42%
53. O=C(Nc1ccccc1)c1ccc2nsnc2c1  2.43%
54. COc1ccc(/C=C/C(=O)C(C(N)=O)=C2SCCS2)cc1  2.51%
55. CCOC(=O)c1sc2nc(C)nc(SCC(=O)NC3CCS(=O)(=O)C3)c2c1C (centres unmarked)  2.56%
56. O=C(c1ccc(Cl)c(S(=O)(=O)N2CCOCC2)c1)N1CCCC1  3.83%
57. CCC(=O)N1CCc2cc(S(=O)(=O)CCC(=O)Nc3ccc(OC)c(OC)c3)ccc21  3.92%
58. O=c1[nH]c2ccccc2n1Cc1ccc(F)cc1  3.96%
59. COc1ccc(NC(=O)CSc2ccc3ccccc3c2)cc1S(=O)(=O)N1CCCCC1  6.16%
60. COc1ccc(-c2cc(C(F)F)n3ncc(C(=O)n4ccnc4C)c3n2)cc1  6.68%
61. Br.COC(=O)c1ccc(CN2CCSC2=N)cc1  6.85%
62. CCc1c(C)c2cc(Cl)c(O)c(CN3CCCC3)c2oc1=O  7.02%
63. Cc1c(CC(=O)NCCC(=O)O)c(=O)oc2cc3occ(-c4ccccc4)c3cc12  7.11%
64. CC(C)Oc1ccccc1NC(=O)CSc1nccn1C  8.33%
65. O=C1/C(=C/c2coc3ccc(O)cc3c2=O)SC(=S)N1c1ccccc1  8.42%
66. Cc1cc(-c2nc3ncccc3o2)ccc1NC(=S)NC(=O)C(C)C  9.24%
67. Cc1c(C)c2cc(Cl)c(OCC(=O)N3CCN(c4ccc(F)cc4)CC3)cc2oc1=O  9.44%
68. CCC(CC)c1nnc(NC(=O)CCN2C(=O)c3ccccc3C2=O)s1  9.47%
69. CNc1cc(CS(=O)c2ccccc2)nc(-c2ccccc2)n1 (centres unmarked)  10.3%
70. COc1ccc(CCNC2CC(=O)N(N(C)C)C2=O)cc1OC (centres unmarked)  11.3%
71. N#Cc1c(SCc2ccc(Cl)cc2)sc(C(=O)c2ccccc2)c1N  12.5%
72. Cc1ccc(C(=O)NCCNC(=O)c2ccccn2)cc1  12.9%
73. Cn1nnc2cc(C(=O)Nc3ccc4ccccc4c3)ccc21  13.3%
74. O=C(Nc1nncs1)C1CCCC1  13.3%
75. Cc1ccc(NN2C(=O)C=C(c3ccc(Cl)cc3)C2=O)cc1  13.9%
76. CC(C)=C1C2CCC1C(C(=O)Nc1cc(C)cc(C)c1)C2C(=O)O (centres unmarked)  14%
77. CCN(C(=O)COC(=O)c1c(-c2ccccc2)noc1C)c1c(N)n(Cc2ccccc2)c(=O)[nH]c1=O  14.3%
78. COc1ccc(C(C(=O)NC2CCCC2)N(Cc2cccnc2)C(=O)c2snc(C(N)=O)c2N)cc1OC (centres unmarked)  14.5%
79. Cc1cc(C)cc(N=C2NC(=O)/C(=C/c3cccs3)S2)c1  14.7%
80. Cc1cc(C)nc(-n2ncc3c2CCCC3=O)n1  15.5%
81. Cc1cccc(-n2c(SCC(=O)O)nc3sc4c(c3c2=O)CCCC4)c1  16.6%
82. CC1CCN(C(=O)c2ccc(NS(=O)(=O)c3cccs3)cc2)CC1  17.2%
83. COc1cccc(C2=CC(c3cc(OC)ccc3OC)n3nnnc3N2)c1 (centres unmarked)  18.4%
84. O=C(NNC(=S)Nc1cccc(C(F)(F)F)c1)c1ccccc1Cl  18.6%
85. Cc1cc(NC(=O)CSc2nc(C(C)C)nc3sc(C)c(C)c23)no1  18.8%
86. COC(=O)c1cc(=O)n(Cc2ccc3c(c2)OCO3)c(=Nc2ccc(F)cc2)s1  19.9%
87. COc1ccc(OC)c(/C=N\NC(=O)CSc2nnc(CCCc3ccc(OC)c(C)c3)o2)c1  20.2%
88. Cc1ccccc1NS(=O)(=O)c1ccc2[nH]c(=O)[nH]c2c1  22.2%
89. CSc1nc2sccc2c(=O)[nH]1  32.8%
